# Source: the antibiotic and cytotoxicity screens of Wong et al. (2023)
# The other results are listed elsewhere or left out.
# What was measured:
# HSkMC = human skeletal muscle cells; test: cytotoxicity call (relative viability < 0.9); conditions: 10 µM
# HepG2 = test: cytotoxicity call (relative viability < 0.9); conditions: 10 µM
# S. aureus RN4220 = test: growth inhibition call (relative growth <= 0.2); conditions: 50 µM
SMILES,cytotoxicity call (HSkMC),cytotoxicity call (HepG2),growth inhibition call (S. aureus RN4220)
O=C(C=Cc1ccc(O)c(O)c1)C=C(O)C=Cc1ccc(O)c(O)c1,inactive,active,inactive
Cc1noc(C)c1NC(=O)Nc1ccc2c(c1)C(=O)N([C@@H](C)CO)C[C@H](C)[C@H](CN(C)S(=O)(=O)c1ccc(Cl)cc1)OCCCC[C@@H](C)O2,inactive,inactive,inactive
COc1ccccc1S(=O)(=O)N(C)C[C@H]1OCc2cn(nn2)CCCC(=O)N([C@@H](C)CO)C[C@@H]1C,inactive,inactive,inactive
C[C@@H]1CN([C@H](C)CO)S(=O)(=O)c2ccc(C#CC3CC3)cc2O[C@@H]1CN(C)C(=O)Cc1ccncc1,inactive,inactive,inactive
CC(C)NC(=O)N1CC[C@@H]2N(S(C)(=O)=O)CC[C@@]2(C(=O)N2CCOCC2)CC1,inactive,inactive,inactive
Cc1noc(C)c1NC(=O)N(C)C[C@@H]1OCCCC[C@H](C)Oc2ccc(NC(=O)Nc3cccc4ccccc34)cc2C(=O)N([C@H](C)CO)C[C@@H]1C,inactive,inactive,inactive
CCN(CC)C(=O)N1CCN(C)CC1,inactive,inactive,inactive
C[C@H](CO)N1C[C@H](C)[C@@H](CN(C)C(=O)Nc2cccc3ccccc23)Oc2ccc(NC(=O)Nc3ccc(F)cc3)cc2CC1=O,inactive,inactive,inactive
O=C(CN1CCOCC1)NCC[C@@H]1CC[C@@H](NS(=O)(=O)c2ccc(Cl)cc2)[C@H](CO)O1,inactive,inactive,inactive
C[C@@H]1CN([C@H](C)CO)C(=O)Cc2cc(NS(=O)(=O)c3cn(C)cn3)ccc2O[C@H]1CN(C)S(=O)(=O)c1ccc(F)cc1,inactive,inactive,inactive
NC[C@H]1OB(O)c2c(OCCO)ccc(Cl)c21,inactive,inactive,inactive
C[C@@H]1CCCCO[C@H](CN(C)C(=O)Nc2ccc(C(F)(F)F)cc2)[C@@H](C)CN([C@@H](C)CO)C(=O)c2cc(NC(=O)Nc3ccccc3)ccc2O1,inactive,active,inactive
C[C@@H]1CCCCO[C@@H](CN(C)C(=O)NC2CCCCC2)[C@H](C)CN([C@H](C)CO)C(=O)c2cc(NC(=O)c3ccccc3)ccc2O1,inactive,inactive,inactive
C[C@H](O)C#Cc1ccc2c(c1)O[C@@H](CN(C)C(=O)Nc1ccccc1)[C@@H](C)CN([C@H](C)CO)S2(=O)=O,inactive,inactive,inactive
Cc1ccc(S(=O)(=O)Nc2ccc3c(c2)C(=O)N([C@H](C)CO)C[C@@H](C)[C@@H](CN(C)C(=O)NC(C)C)O3)cc1,inactive,inactive,inactive
C[C@H]1CN([C@@H](C)CO)S(=O)(=O)c2ccc(-c3cccnc3)cc2O[C@H]1CN(C)CC1CCOCC1,inactive,inactive,inactive
Nc1nc(=O)n([C@@H]2CS[C@H](CO)O2)cc1F,inactive,inactive,inactive
C[C@H]1CN([C@@H](C)CO)C(=O)c2cc(NS(C)(=O)=O)ccc2O[C@H]1CN(C)Cc1ccc2c(c1)OCO2,inactive,inactive,inactive
Cc1noc(C)c1S(=O)(=O)Nc1ccc2c(c1)C(=O)N([C@@H](C)CO)C[C@H](C)[C@H](CN(C)CC1CC1)O2,inactive,inactive,inactive

SMILES,cytotoxicity call (HSkMC),cytotoxicity call (HepG2),growth inhibition call (S. aureus RN4220)
COc1ccc(NC(=O)Nc2ccc3c(c2)CC(=O)N([C@@H](C)CO)C[C@H](C)[C@H](CN(C)S(=O)(=O)c2c(C)noc2C)O3)cc1,inactive,inactive,inactive
C[C@H](CO)N1C[C@H](C)[C@H](CN(C)Cc2ccc(-c3ccccc3)cc2)Oc2c(NC(=O)Nc3ccccc3)cccc2C1=O,inactive,inactive,inactive
CCS(=O)(=O)Nc1ccc2c(c1)C(=O)N(C)[C@H]1CC[C@@H](CC(=O)NCc3ccccc3F)O[C@@H]1CO2,inactive,inactive,inactive
C[C@@H]1CN([C@@H](C)CO)C(=O)Cc2cc(NC(=O)Cc3ccccc3)ccc2O[C@@H]1CN(C)Cc1ccc(Cl)c(Cl)c1,active,active,inactive
COc1ccc2c3c(n(c2c1)C)[C@@H](CO)N(C[C@]13CN(Cc2cccc(c2)F)C1)C(=O)C1CCOCC1,active,inactive,inactive
Cc1ccc(S(=O)(=O)Nc2ccc3c(c2)CC(=O)N([C@@H](C)CO)C[C@@H](C)[C@@H](CN(C)CC2CC2)O3)cc1,inactive,inactive,inactive
Cc1noc(C)c1S(=O)(=O)Nc1ccc2c(c1)C(=O)N([C@H](C)CO)C[C@@H](C)[C@H](CN(C)C(=O)Nc1ccc(C(F)(F)F)cc1)OCCCC[C@@H](C)O2,inactive,active,inactive
C[C@@H]1CCCCO[C@H](CN(C)Cc2ccncc2)[C@H](C)CN([C@@H](C)CO)C(=O)c2cc(NC(=O)Nc3ccc4c(c3)OCO4)ccc2O1,inactive,inactive,inactive
C[C@H](CO)N1C[C@H](C)[C@@H](CN(C)S(=O)(=O)c2cccs2)Oc2c(NC(=O)C3CCOCC3)cccc2C1=O,inactive,inactive,inactive
COCc1cn(CC[C@H]2CC[C@H](NC(=O)CCN3CCCCC3)[C@H](CO)O2)nn1,inactive,inactive,inactive
O=C(C[C@@H]1CC[C@H]2[C@@H](COC[C@H](O)CN2C(=O)Nc2cccc(F)c2)O1)NCc1ccccc1Cl,inactive,inactive,inactive
CCNC(=O)C[C@@H]1C=C[C@@H](NC(=O)C2CC2)[C@@H](CO)O1,inactive,inactive,inactive
COc1ccc(NC(=O)Nc2cccc3c2O[C@H](CN(C)S(=O)(=O)c2c(C)noc2C)[C@@H](C)CN([C@H](C)CO)C3=O)cc1,inactive,inactive,inactive
C[C@H](CO)N1C[C@H](C)[C@@H](CN(C)C(=O)Nc2cccc3ccccc23)Oc2ccc(NC(=O)Cc3ccccc3)cc2C1=O,inactive,inactive,inactive
CN[C@H]1CC[C@@H](c2ccc(Cl)c(Cl)c2)c2ccccc21,inactive,active,inactive
C=CCN1C(=O)[C@@]2(O[C@@H](CCn3cc([C@H](O)c4ccccc4)nn3)[C@H]([Si](C)(C)c3ccc(OC)cc3)[C@H]2C)c2cc(N3CCOC3=O)ccc21,inactive,inactive,inactive
CCS(=O)(=O)N1CC[C@]2(CC1)CN([C@@H](CO)c1[nH]c3cc(ccc3c12)OC)C(=O)Nc1c(noc1C)C,inactive,inactive,inactive
CC(C)NC(=O)N(C)C[C@@H]1Oc2ccc(NS(=O)(=O)c3ccc(F)cc3)cc2CC(=O)N([C@@H](C)CO)C[C@H]1C,inactive,inactive,inactive
COc1ccc(C(=O)CCC(=O)O)c2ccccc12,inactive,active,inactive

SMILES,cytotoxicity call (HSkMC),cytotoxicity call (HepG2),growth inhibition call (S. aureus RN4220)
C[C@H]1CN([C@@H](C)CO)C(=O)Cc2cc(NC(=O)Cn3cnnn3)ccc2O[C@H]1CN(C)Cc1ccncc1,inactive,inactive,inactive
C[C@@H]1CN([C@@H](C)CO)C(=O)c2cc(NS(C)(=O)=O)ccc2O[C@H]1CN(C)S(=O)(=O)c1cn(C)cn1,inactive,inactive,inactive
C[C@H]1[C@H]([Si](C)(C)F)[C@@H](CC(=O)N(CCO)Cc2ccccc2)O[C@]12C(=O)N(c1ccccc1)c1ccccc12,inactive,inactive,inactive
C[C@@H]1CN([C@@H](C)CO)C(=O)c2cc(NC(=O)Nc3ccc4c(c3)OCO4)ccc2O[C@@H](C)CCCCO[C@@H]1CN(C)S(=O)(=O)c1ccc(F)cc1,inactive,inactive,inactive
CN(C)CCN(Cc1cccs1)c1ccccn1.Cl,inactive,inactive,inactive
C[C@H]1CN([C@@H](C)CO)C(=O)c2cccc(NC(=O)c3nc4ccccc4s3)c2O[C@H]1CN(C)C(=O)Nc1ccc(F)cc1,inactive,inactive,inactive
C[C@@H]1CN([C@@H](C)CO)C(=O)Cc2cc(NC(=O)Cn3cnnn3)ccc2O[C@@H]1CN(C)C(=O)Nc1ccccc1,inactive,inactive,inactive
COc1ccc(NC(=O)Nc2ccc3c(c2)CC(=O)N([C@H](C)CO)C[C@H](C)[C@@H](CN(C)CC2CCCCC2)O3)cc1,inactive,inactive,inactive
C[C@H]1CN([C@@H](C)CO)C(=O)c2c(c3ccccc3n2C)-c2ccccc2CO[C@H]1CN(C)Cc1cccc(C(=O)O)c1,inactive,inactive,inactive
COc1ccc2c3c(ccc2c1)-c1[nH]c2ccccc2c1CC3,inactive,inactive,inactive
CCCNC(=O)N1[C@@H]2c3cccc(=O)n3C[C@H]1[C@H](CO)[C@H]2C(=O)NCC(F)(F)F,inactive,inactive,inactive
Cc1noc(C)c1S(=O)(=O)N(C)C[C@@H]1OCCCC[C@@H](C)Oc2ccc(NS(C)(=O)=O)cc2C(=O)N([C@@H](C)CO)C[C@H]1C,inactive,inactive,inactive
C[C@@H]1CCCCO[C@@H](CN(C)C(=O)Nc2ccc(C(F)(F)F)cc2)[C@H](C)CN([C@H](C)CO)C(=O)c2cc(NC(=O)Cc3ccccc3)ccc2O1,inactive,active,inactive
C[C@H](CO)N1C[C@H](C)[C@@H](CN(C)Cc2ccc(Cl)c(Cl)c2)Oc2ccc(NS(=O)(=O)c3cccs3)cc2CC1=O,inactive,inactive,inactive
C[C@@H]1CCCCO[C@@H](CN(C)C(=O)Nc2ccc(C(F)(F)F)cc2)[C@@H](C)CN([C@H](C)CO)C(=O)c2cc(NC(=O)Nc3ccccc3)ccc2O1,inactive,inactive,inactive
C[C@H](CO)N1C[C@H](C)[C@@H](CN(C)S(C)(=O)=O)Oc2ccc(NS(=O)(=O)c3cn(C)cn3)cc2C1=O,inactive,inactive,inactive
COCCNC(=O)C[C@@H]1CC[C@H](NS(=O)(=O)c2ccc(C)cc2)[C@H](CO)O1,inactive,inactive,inactive
CN(C)CCCNC(=O)C[C@@H]1CC[C@H]2[C@@H](COc3ccc(NC(=O)c4ccccc4F)cc3C(=O)N2C)O1,inactive,inactive,inactive
